± gives the standard deviation of the averaged measurements. The list shows a part of the results.
What follows are sequences tested on PfAP2-G AP2 domain (GST-tagged) (assay: gcPBM binding intensity (ln(normalized median fluorescence intensity)); higher = stronger DNA binding).
How it was run: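 Binding intensity values are the highest Masliner-normalised natural-log median intensity among replicate spots of either probe orientation. The binding step lasted 1 h in 1× PBS with 1% milk, 0.2 mg/ml BSA, 0.5% salmon testes DNA and 0.03% Triton X-100, using GST-tagged P. falciparum DNA-binding domains expressed in E. coli on an Agilent 4 × 180k array of primer-extended double-stranded 36-bp intergenic genomic probes plus negative controls. Alexa488 anti-GST antibody and a 488 nm scan detected bound protein.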

| Sequence | gcPBM binding intensity (ln) |
| --- | --- |
| AAATACATACATTAATGTACAAATAGAAACACTCTT [XGTACX_site1512] | 10.7 ± 0.42 |
| GCTTAGTTATATAACTGTACTATTTTTATTTATATG [XGTACX_site884] | 11.5 ± 0.97 |
| CTTATACAAAAAAAAAGTACATAACATAATAAGAAT [XGTACX_site6782] | 11.5 ± 0.81 |
| ACAGATGATCAAAATTGTACAGAGTTATATTATATT [XGTACX_site4642] | 10.7 ± 0.44 |
| TTATTTAAAAATAGCACACATTATATATATATATAT [CACACA_site5556] | 9.99 ± 0.2 |
| ATATCATATATAAGTCGTACGATGAATAGAATTTTT [XGTACX_site7586] | 10.8 ± 0.38 |
| CACCCATACAGACATACACACACATATATATTAATA [CACACA_site8077] | 10.3 ± 0.29 |
| GATAAACCATATATAACACACATATGAATATTGCAA [CACACA_site6735] | 9.945 ± 0.092 |
| ATTATATAATTTAATCGTACACAAATATTTGTTAGT [XGTACX_site5913] | 11.3 ± 0.8 |
| TATATATATATAACAACACACACAGATCATAAAACT [CACACA_site8670] | 10.3 ± 0.27 |
| TATTTTTTTTCGTAATGTACATAAAAAATGCAAAAA [XGTACX_site8491] | 11.3 ± 1 |
| CAAAATATTTTTATAACACACATATATAGAATGTGC [CACACA_site1145] | 9.94 ± 0.014 |
| CCATAATTATATGCCAGTACATATTTGTAACAAAAA [XGTACX_site851] | 10.9 ± 0.6 |
| TTTATTTTTCATTGGGGTACACAAGTTTATTTTATT [XGTACX_site4263] | 11.7 ± 0.96 |
| TAAGTAATAGTTTGTGCACACTCAAGTATATCATAT [CACACA_site4035] | 10.5 ± 0.29 |
| TATTATTCCATGTGAAGTACAGAAATATAAATAAAT [XGTACX_site5106] | 11.3 ± 0.78 |
| CTTTTAAAAAAATTCATGCACACGAAATAAAAAGCA [CACACA_site929] | 10.2 ± 0.19 |
| TATCATCTTAATATCGTGCACATTTATAGAACGAAA [GTGCAC_site9992] | 10.2 ± 0.3 |
| CTATTTTAATATTTTACACACCATGTAAAATATATA [CACACA_site5732] | 10.1 ± 0.15 |
| TTTTACTATACTTATGCACACAAGATAAATACATAT [CACACA_site5619] | 10.2 ± 0.15 |
| ATACCTCAAATTGATACACACAAAAAAAGTAAATTA [CACACA_site3134] | 10.2 ± 0.25 |
| TATTAAAAGGTGAGTACACACATATATGTGTATATA [CACACA_site7070] | 11.4 ± 0.83 |

| Sequence | gcPBM binding intensity (ln) |
| --- | --- |
| ATATATATATATATATGTACACAGGACAATAATCCT [XGTACX_site6383] | 11.2 ± 0.66 |
| ATTTGGCAGAAACACACACACACACCCACCCACATA [CACACA_site589] | 10.5 ± 0.33 |
| ATCATGAAATATATTTGTACACATAATAATATAATA [XGTACX_site8798] | 11.4 ± 0.89 |
| TTTTTTTTTATAAATACACACGTACGGGTGCATAAC [CACACA_site8444] | 11.1 ± 0.81 |
| TTATAGAAACATTGGTGTACGATATTTACTTCTTTC [XGTACX_site7314] | 11.2 ± 0.79 |
| ACTAATTACTATAAAACACACATATATTTATTTATA [CACACA_site7263] | 10.01 ± 0.092 |
| CACATGTATTTATAGGTGCGTAAAAACACTTTATAT [GTGCAC_site9501] | 10.5 ± 0.2 |
| AAAGAAAATTCAATAGTGCATAAAAATATATATGTT [GTGCAC_site9680] | 9.86 |
| GGAATAGTCGGGTGCATACACACCTTAAATATAATA [CACACA_site1081] | 10.3 ± 0.45 |
| AATCATATTAGTATGGTGCAATATATATATAAATAT [GTGCAC_site9800] | 9.975 ± 0.049 |
| AAACATAAATTTTATTGTACATTATATAGAATTTTC [XGTACX_site576] | 10.9 ± 0.5 |
| TTTTCATTTTTTCGTTGTACATAAATAATATATATT [XGTACX_site856] | 11.2 ± 0.61 |
| AATACATACATACATACACACATATATATATATTAT [CACACA_site3575] | 10.2 ± 0.12 |
| TTTTTTAAAAGATAATATTTTATTAATGTATTCTCA [GTGCAC_negctrl_site598] | 9.54 ± 0.014 |
| TAAAAAAATTCATGCACACGAAATAAAAAGCACCTT [CACACA_site4667] | 10.2 ± 0.14 |
| TTTTACTATACTTATGCACACAAGATATATACATAT [CACACA_site2968] | 10.28 ± 0.049 |
| TATTTATTGTGACACTTATATTATTTTATGATTAAA [CACACA_negctrl_site525] | 10.2 ± 0.3 |
| TTTTCATTTGTGACAGTGCAAAATGTTATATTAAAA [GTGCAC_site9647] | 10.2 ± 0.28 |
| TATAAAATGATGATATGTACTTATGTAGTTTTTTTA [XGTACX_site8711] | 11 ± 0.64 |
| AATATATGGTTTCATGATATTAAATTCAAAATAATG [CACACA_negctrl_site318] | 9.95 ± 0.071 |
| AATAATACATCCTTAGTGCAGAAATAAAAATTAAGC [GTGCAC_site9955] | 10.2 ± 0.26 |
| TGTATACATTCTGAATGTACGGAACACCTCATAACT [XGTACX_site7240] | 10.8 ± 0.52 |

| Sequence | gcPBM binding intensity (ln) |
| --- | --- |
| TTTGTAATAAATAAGAGTACAAGTATGGTTCCACTA [XGTACX_site2579] | 11.4 ± 1 |
| ATTGGACTATAAATAGGTACACATATATATATATAT [XGTACX_site7562] | 11.5 ± 0.73 |
| TCATATATTCAAAAATTTAAAGTTAATAAAACTTGA [CACACA_negctrl_site1546] | 9.46 ± 0.014 |
| AAAAAAAAAAAAAACACACACATATAAATATAAATA [CACACA_site6972] | 9.98 ± 0.22 |
| ATTATTTGAAACTATTGTACATTTAAAAACATTTTT [XGTACX_site4896] | 10.9 ± 0.42 |
| TGGAACCTTTAAAATACACACCCAAATCCTTTGAAA [CACACA_site7671] | 10.14 ± 0.064 |
| CATATATATTTTATTTGTACGTATAAAAAAACAAAA [XGTACX_site4253] | 11.5 ± 1.1 |
| TAAATACTTGTATATAGTACAAGTTGTTTTTTTTAA [XGTACX_site5643] | 10.7 ± 0.42 |
| AATGTGTTTTTTTTTTTTTTTTTTTTCAATCTCTAT [CACACA_negctrl_site794] | 9.685 ± 0.092 |
| GAAAAAAGAAAAAAAAGTACACACATGTATATTAAT [XGTACX_site5265] | 11.5 ± 0.91 |
| AATGTACACCCACCCACACACAAACAAATATATATA [CACACA_site5521] | 11.4 ± 0.92 |
| TTTTTGTTTGAACACTGTACGTATAAATATAAAAGT [XGTACX_site6476] | 11.7 ± 0.84 |
| TATATATAAAAACACACACACACACCCTATAATTAT [CACACA_site4063] | 10.3 ± 0.26 |
| TTGTGTTATCACACGAAGGGGATAAGACATAAATGT [TGCATGCA_negctrl_site368] | 10 ± 0.13 |
| TTTCAAATTTAATACACACACAAGTATATATTTATC [CACACA_site3947] | 10.1 ± 0.23 |
| TAAGACAATAAATGCTGTACAATTGAATATCTTGGA [XGTACX_site636] | 10.9 ± 0.25 |
| TTATAAAAATTTAGTTGTACATGTCAAATTATCAAT [XGTACX_site7229] | 11.1 ± 0.77 |
| TTTTCGTAACTGATTCAACACACAAAAGGGGGAAAA [CACACA_site8517] | 10.8 ± 0.61 |
| AATATATAGCTAAAAACACACAAATATATACACATA [CACACA_site9203] | 10.1 ± 0.25 |
| TATTTTATTATTATTATTAGTATGATTTCTTTATAG [CACACA_negctrl_site550] | 9.675 ± 0.021 |
| GGATAGGCATAACATAGTACGTACAAATATATATAT [XGTACX_site454] | 11.6 ± 0.91 |
| TATTTTATTATTATTATTTCTTTATAGTGTATTCTA [CACACA_negctrl_site517] | 9.785 ± 0.092 |

| Sequence | gcPBM binding intensity (ln) |
| --- | --- |
| TTTTTTGTACCAAAAAAAAAAAAAAGAAAAAAAAAC [CACACA_negctrl_site1416] | 10.8 ± 0.92 |
| TTAACAAATAAACACACACACACACCCAAAAAAAAA [CACACA_site8068] | 10.4 ± 0.32 |
| ATAAAAAAAAAAACAGTAAAATTATAATTATAATTA [TGCATGCA_negctrl_site356] | 9.635 ± 0.049 |
| AATGTAAAATCTTCATATACATTTAAGTCTGTATTT [TGCATGCA_negctrl_site183] | 9.53 ± 0.23 |
| ACAAAAATTAAATAAAGTACATTTTTAAAATACGTA [XGTACX_site3880] | 11.2 ± 0.64 |
| TAATGATAAATACATACACACAAAAAATGATATATA [CACACA_site7258] | 9.91 |
| TATATCCCTTAGAATACACACCCATATGAGTGTGAA [CACACA_site8965] | 9.96 ± 0.23 |
| AAAAGCACAAAAAATACACACACAAAAAATAAAAAA [CACACA_site8545] | 10 ± 0.19 |
| CATATTATATTCTGCTTACACACATATATATATATA [CACACA_site3059] | 10.2 ± 0.23 |
| TTTTTTTGTTATATCCTGCACTTCTTAACTATATTA [GTGCAC_site9807] | 10.22 ± 0.092 |
| AATAATAAGAATAACGCATGCACATATAATATAGAA [TGCATGCA_site3] | 9.96 ± 0.17 |
| AATATGTAGTAATCAAGTACTAATGTCTTAATTCGG [XGTACX_site308] | 10.6 ± 0.4 |
| GTTTTTTATATAAGGTGGTCAACATTGTAATGTTAA [XGTACX_site3204] | 11.3 ± 0.81 |
| AGCTGAAAAAAAAGCTTGCACACGTATTTGCTTTAT [CACACA_site1512] | 10.4 ± 0.27 |
| AAATTACACATCCATACACACATATTTTTTTTAATT [CACACA_site5242] | 10.1 ± 0.15 |
| GTATATATGTATATGTGTACACATATTCTTAACTCA [XGTACX_site309] | 11.6 ± 0.89 |
| ATATAAATTGGCAATAGTACATAAAGGCATAGAAAG [XGTACX_site2674] | 11 ± 0.53 |
| TATAGATACATATACACACACACACCGACATATATA [CACACA_site9138] | 10.1 ± 0.17 |
| TATATGGAAAATTAAAGTACTAAAGAATAAATAGAA [XGTACX_site8796] | 11 ± 0.64 |
| TATAAAATAAATTGTGCACACATATTTATAAATATG [CACACA_site2330] | 10.6 ± 0.27 |
| GAGAAACTTGTTTAAACATGCACAAAAAAAAAAAAA [TGCATGCA_site340] | 9.96 ± 0.36 |
| AATAATAGAAGCACCCACCCACCACCACCCACACAT [CACACA_negctrl_site1033] | 10.9 ± 0.33 |
